The assay has as its target full length human eRF1 fused to the GAL4 transactivation domain (yeast; human, UniProt P62495). Kind of assay: yeast two-hybrid: His growth (HF7c) and colony colour in filter β-Gal assay (SFY526). An excerpt: PCR products encoding three N-terminal (PP2Ac^50-309, PP2Ac^100-309 and PP2Ac^150-309) and three C-terminal (PP2Ac^1-259, PP2Ac^1-209 and PP2Ac^1-159) truncations of PP2Acα are subcloned into pGBT9 in-frame with the GAL4 DNA binding domain. Control plasmids encoding wild-type GAL4 protein (pCL1), SV40 large T antigen (pTD1), p53 (pVA3) and lamin C (pLAM5'), the latter three fused to the appropriate domains of GAL4, are provided by the manufacturer and used for control interactions. Expression constructs are transformed into *S. cerevisiae* host strains SFY526 (lacZ reporter gene) and HF7c (lacZ and HIS3 reporter genes). […] The expression of the lacZreporter gene is determined by measuring β-galactosidase activity using 5-bromo-4-chloro-3-indolyl-β-D-galactoside [X-Gal] and O-nitrophenyl-β-D-galactoside [ONPG] as substrates, whereas the expression of HIS3 reporter gene is assessed by monitoring growth on triple selective SD medium lacking leucine, tryptophan and histidine. All media and reagents are prepared according to the manufacturer's recommendations. Transcriptional activation of reporter genes driven by wild-type GAL4 protein or brought about by the interaction between SV40 largeT and p53 are used as positive controls. […]

B1: PP2Ac^[…] fused to the GAL4 DNA binding domain (enzyme)
chain: not shown
With B1, the binding result is reported as “no binding”.

(Values after patent US6159704, “Phosphatase modulator” (Novartis AG, dated 2000).)
